From PMC7315779
No constants are given. Whether binding was seen depends on the method and setting. Binding seen in cells or lysates may run through a third protein. Some binding calls cover weakened binding; strength is not graded here. For some of these results: Sequences can lack the tags named with a protein.

Amino acid sequences for entries named in this document (tags omitted).
UniProt Q5S007: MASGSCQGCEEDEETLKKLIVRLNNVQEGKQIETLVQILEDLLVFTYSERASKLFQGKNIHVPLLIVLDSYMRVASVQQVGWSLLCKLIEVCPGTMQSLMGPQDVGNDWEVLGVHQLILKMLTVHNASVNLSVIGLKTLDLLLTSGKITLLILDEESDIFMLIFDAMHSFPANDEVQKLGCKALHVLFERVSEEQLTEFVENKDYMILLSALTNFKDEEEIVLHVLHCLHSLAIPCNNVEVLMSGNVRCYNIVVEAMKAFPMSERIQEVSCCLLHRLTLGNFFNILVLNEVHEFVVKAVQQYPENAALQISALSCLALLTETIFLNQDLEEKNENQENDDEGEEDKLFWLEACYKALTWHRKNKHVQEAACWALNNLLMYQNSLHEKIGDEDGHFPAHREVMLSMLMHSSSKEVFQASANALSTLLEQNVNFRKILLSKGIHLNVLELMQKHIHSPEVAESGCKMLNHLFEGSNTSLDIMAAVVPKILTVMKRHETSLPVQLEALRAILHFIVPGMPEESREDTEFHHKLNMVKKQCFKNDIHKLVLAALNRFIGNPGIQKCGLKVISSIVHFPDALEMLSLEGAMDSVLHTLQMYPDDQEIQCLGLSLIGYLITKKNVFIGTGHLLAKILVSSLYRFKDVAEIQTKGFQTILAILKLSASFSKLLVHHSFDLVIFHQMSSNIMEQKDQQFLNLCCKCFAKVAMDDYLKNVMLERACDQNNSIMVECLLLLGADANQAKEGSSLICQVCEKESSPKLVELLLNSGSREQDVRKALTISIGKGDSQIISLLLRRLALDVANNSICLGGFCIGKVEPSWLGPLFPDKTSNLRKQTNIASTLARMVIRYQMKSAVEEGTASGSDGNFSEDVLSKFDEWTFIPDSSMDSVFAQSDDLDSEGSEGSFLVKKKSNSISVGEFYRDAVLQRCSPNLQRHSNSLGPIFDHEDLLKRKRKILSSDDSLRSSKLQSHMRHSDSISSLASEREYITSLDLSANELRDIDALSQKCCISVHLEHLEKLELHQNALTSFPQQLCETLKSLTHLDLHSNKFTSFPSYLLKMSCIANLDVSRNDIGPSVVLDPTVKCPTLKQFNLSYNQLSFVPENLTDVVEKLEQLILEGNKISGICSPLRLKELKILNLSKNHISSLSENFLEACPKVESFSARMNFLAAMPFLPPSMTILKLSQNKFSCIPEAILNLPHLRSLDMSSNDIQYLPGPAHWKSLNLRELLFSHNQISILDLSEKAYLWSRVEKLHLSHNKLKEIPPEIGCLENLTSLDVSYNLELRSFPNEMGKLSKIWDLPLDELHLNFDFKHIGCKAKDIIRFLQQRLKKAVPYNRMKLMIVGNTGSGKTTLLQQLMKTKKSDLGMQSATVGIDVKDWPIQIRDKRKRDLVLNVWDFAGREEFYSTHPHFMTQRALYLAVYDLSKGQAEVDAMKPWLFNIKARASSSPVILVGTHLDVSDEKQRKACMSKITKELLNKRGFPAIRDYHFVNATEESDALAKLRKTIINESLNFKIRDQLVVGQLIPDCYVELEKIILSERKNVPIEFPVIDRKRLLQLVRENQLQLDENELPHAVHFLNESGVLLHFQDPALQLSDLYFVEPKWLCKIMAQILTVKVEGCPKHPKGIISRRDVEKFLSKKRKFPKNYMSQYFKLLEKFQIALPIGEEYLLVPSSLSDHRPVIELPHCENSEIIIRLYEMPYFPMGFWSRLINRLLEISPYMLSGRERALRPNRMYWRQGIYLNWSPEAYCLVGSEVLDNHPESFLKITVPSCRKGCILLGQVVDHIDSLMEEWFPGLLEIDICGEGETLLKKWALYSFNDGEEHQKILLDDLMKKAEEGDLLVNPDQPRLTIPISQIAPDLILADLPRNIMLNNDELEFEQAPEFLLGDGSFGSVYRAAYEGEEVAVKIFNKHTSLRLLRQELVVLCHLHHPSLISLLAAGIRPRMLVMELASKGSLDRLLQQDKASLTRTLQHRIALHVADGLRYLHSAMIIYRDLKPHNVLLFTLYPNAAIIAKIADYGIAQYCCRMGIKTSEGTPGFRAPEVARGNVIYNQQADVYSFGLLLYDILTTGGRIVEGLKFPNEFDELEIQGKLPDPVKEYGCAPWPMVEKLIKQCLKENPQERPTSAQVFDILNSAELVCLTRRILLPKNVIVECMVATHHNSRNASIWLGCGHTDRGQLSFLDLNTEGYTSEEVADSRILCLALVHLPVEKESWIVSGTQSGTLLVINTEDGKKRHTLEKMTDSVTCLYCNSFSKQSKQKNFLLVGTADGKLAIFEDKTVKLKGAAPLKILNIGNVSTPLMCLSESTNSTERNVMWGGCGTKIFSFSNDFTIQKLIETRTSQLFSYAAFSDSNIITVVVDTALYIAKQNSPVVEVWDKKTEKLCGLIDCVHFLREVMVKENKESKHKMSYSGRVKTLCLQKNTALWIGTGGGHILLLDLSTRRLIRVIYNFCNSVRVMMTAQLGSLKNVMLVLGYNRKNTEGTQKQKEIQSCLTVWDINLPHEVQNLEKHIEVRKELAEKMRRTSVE

T1: 3xFLAG-tagged full-length RAB29 (p3x-flag-HD-DEST-RAB29) (UniProt O14966)
T1 sequence: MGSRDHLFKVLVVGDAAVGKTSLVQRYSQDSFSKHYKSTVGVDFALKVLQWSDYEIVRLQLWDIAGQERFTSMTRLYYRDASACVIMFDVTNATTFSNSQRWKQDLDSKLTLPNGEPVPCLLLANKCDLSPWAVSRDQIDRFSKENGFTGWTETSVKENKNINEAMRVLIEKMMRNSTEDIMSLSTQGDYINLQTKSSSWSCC


What was measured:
[1] = biological target: T1, 3xFLAG-tagged full-length RAB29 (p3x-flag-HD-DEST-RAB29); assay: co-IP; HEK293FT transfected with 3xFLAG-tagged bait; lysate in 20 mM Tris-HCl pH 7.5, 150 mM NaCl, 1 mM EDTA, 0.3% Triton X-100, 10% glycerol; anti-flag M2 agarose 1 h at 4°C; eluted with 3xflag peptide; blotted for endogenous partners; mock and FLAG-GUS as negative controls
[2] = biological target: 3xFLAG-tagged full-length LRRK2 (pCHMWS-3xflag-LRRK2) (UniProt Q5S007); assay: as above

Binder	binding [1]	binding [2]
endogenous VPS53 (protein, UniProt Q5VIR6 1-832) MMEEEELEFVEELEAVLQLTPEVQLAIEQVFPSQDPLDRADFNAVEYINTLFPTEQSLANIDEVVNKIRLKIRRLDDNIRTVVRGQTNVGQDGRQALEEAQKAIQQLFGKIKDIKDKAEKSEQMVKEITRDIKQLDHAKRHLTTSITTLNHLHMLAGGVDSLEAMTRRRQYGEVANLLQGVMNVLEHFHKYMGIPQIRQLSERVKAAQTELGQQILADFEEAFPSQGTKRPGGPSNVLRDACLVANILDPRIKQEIIKKFIKQHLSEYLVLFQENQDVAWLDKIDRRYAWIKRQLVDYEEKYGRMFPREWCMAERIAVEFCHVTRAELAKIMRTRAKEIEVKLLLFAIQRTTNFEGFLAKRFSGCTLTDGTLKKLESPPPSTNPFLEDEPTPEMEELATEKGDLDQPKKPKAPDNPFHGIVSKCFEPHLYVYIESQDKNLGELIDRFVADFKAQGPPKPNTDEGGAVLPSCADLFVYYKKCMVQCSQLSTGEPMIALTTIFQKYLREYAWKILSGNLPKTTTSSGGLTISSLLKEKEGSEVAKFTLEELCLICNILSTAEYCLATTQQLEEKLKEKVDVSLIERINLTGEMDTFSTVISSSIQLLVQDLDAACDPALTAMSKMQWQNVEHVGDQSPYVTSVILHIKQNVPIIRDNLASTRKYFTQFCVKFANSFIPKFITHLFKCKPISMVGAEQLLLDTHSLKMVLLDLPSISSQVVRKAPASYTKIVVKGMTRAEMILKVVMAPHEPLVVFVDNYIKLLTDCNTETFQKILDMKGLKRSEQSSMLELLRQRLPAPPSGAESSGSLSLTAPTPEQESSRIRKLEKLIKKRL	binds	binds
endogenous VPS51 (protein, UniProt Q9UID3 1-782) MAAAAAAGPSPGSGPGDSPEGPEGEAPERRRKAHGMLKLYYGLSEGEAAGRPAGPDPLDPTDLNGAHFDPEVYLDKLRRECPLAQLMDSETDMVRQIRALDSDMQTLVYENYNKFISATDTIRKMKNDFRKMEDEMDRLATNMAVITDFSARISATLQDRHERITKLAGVHALLRKLQFLFELPSRLTKCVELGAYGQAVRYQGRAQAVLQQYQHLPSFRAIQDDCQVITARLAQQLRQRFREGGSGAPEQAECVELLLALGEPAEELCEEFLAHARGRLEKELRNLEAELGPSPPAPDVLEFTDHGGSGFVGGLCQVAAAYQELFAAQGPAGAEKLAAFARQLGSRYFALVERRLAQEQGGGDNSLLVRALDRFHRRLRAPGALLAAAGLADAATEIVERVARERLGHHLQGLRAAFLGCLTDVRQALAAPRVAGKEGPGLAELLANVASSILSHIKASLAAVHLFTAKEVSFSNKPYFRGEFCSQGVREGLIVGFVHSMCQTAQSFCDSPGEKGGATPPALLLLLSRLCLDYETATISYILTLTDEQFLVQDQFPVTPVSTLCAEARETARRLLTHYVKVQGLVISQMLRKSVETRDWLSTLEPRNVRAVMKRVVEDTTAIDVQVGLLYEEGVRKAQSSDSSKRTFSVYSSSRQQGRYAPSYTPSAPMDTNLLSNIQKLFSERIDVFSPVEFNKVSVLTGIIKISLKTLLECVRLRTFGRFGLQQVQVDCHFLQLYLWRFVADEELVHLLLDEVVASAALRCPDPVPMEPSVVEVICERG	binds	binds
